Data as given in US20240181022A1, “AMURINS LYSINS, AND LYSIN-ANTIMICROBIAL PEPTIDE (AMP) CONSTRUCTS ACTIVE AGAINST GRAM-NEGATIVE BACTERIA” (priority 2021, published 2024).
Entries with a single value are a further part of the results.

Tested on: P. aeruginosa AR-769
Assay: GN370 in the rabbit pneumonia model
Format: in vivo, New Zealand White rabbits
Settings: intravenously

NCC[C@H](O)C(=O)N[C@@H]1C[C@H](N)[C@@H](O[C@H]2O[C@H](CN)[C@@H](O)[C@H](O)[C@H]2O)[C@H](O)[C@H]1O[C@H]1O[C@H](CO)[C@@H](O)[C@H](N)[C@H]1O [amikacin, reference compound] was tested, and the “Tissue bacterial burden (mean ± SD)” value (amikacin 4 mg/kg, 3 doses every 8 hours, kidneys) was 4.82 ± 0.82 Log10 CFU/g, the “Tissue bacterial burden (mean ± SD)” value (amikacin 4 mg/kg, 3 doses every 8 hours, lung #1) was 6.43 ± 1.47 Log10 CFU/g and the “Tissue bacterial burden (mean ± SD)” value (amikacin 4 mg/kg, 3 doses every 8 hours, lung #2) was 6.63 ± 0.91 Log10 CFU/g. For the same molecule, the “Tissue bacterial burden (mean ± SD)” value (amikacin 4 mg/kg, 3 doses every 8 hours, spleen) was 4.63 ± 1.16 Log10 CFU/g.

B1: GN370: lysin-AMP construct, SEQ ID NO: 149: MIDR, FIRL and NPTH moieties N-terminal to GN202 lysin (protein)
chain: MIDRFIRLNPTHGPRRPRRPGRRAPVRTSQRGIDLIKSFEGLRLSAYQDSVGVWTIGYGTTRGVTRYMTITVEQAERMLSNDIQRFEPELDRLAKVPLNQNQWDALMSFVYNLGAANLASSTLLDLLNKGDYQGAADQFPHWVNAGGKRLDGLVKRRAAERALFLEPLS
modifications: GN370 lysin
For B1, the “Tissue bacterial burden (mean ± SD)” value (GN370 3 mg/kg single dose, kidneys) was 4.05 ± 0.91 Log10 CFU/g, the “Tissue bacterial burden (mean ± SD)” value (GN370 3 mg/kg single dose, lung #1) was 6.14 ± 0.99 Log10 CFU/g and the “Tissue bacterial burden (mean ± SD)” value (GN370 3 mg/kg single dose, lung #2) was 5.60 ± 1.59 Log10 CFU/g. For the same molecule, the “Tissue bacterial burden (mean ± SD)” value (GN370 3 mg/kg single dose, spleen) was 3.84 ± 0.97 Log10 CFU/g, the “Tissue bacterial burden (mean ± SD)” value (GN370 10 mg/kg single dose, kidneys) was 4.02 ± 0.90 Log10 CFU/g and the “Tissue bacterial burden (mean ± SD)” value (GN370 10 mg/kg single dose, lung #1) was 5.74 ± 1.62 Log10 CFU/g. The “Tissue bacterial burden (mean ± SD)” value (GN370 10 mg/kg single dose, lung #2) was 5.57 ± 1.40 Log10 CFU/g and the “Tissue bacterial burden (mean ± SD)” value (GN370 10 mg/kg single dose, spleen) was 3.94 ± 0.86 Log10 CFU/g.
